# In all, about 340,000 compounds went through this assay and about 530 (0.16%) were called active. This list was built around the results that the source calls inconclusive (neither active nor inactive); the mix of calls is not that of the screen. Rule as the data show it: active = activity change below about -80%; inconclusive = between about -30% and that limit; inactive = weaker than that.
# Assay: Small Molecules that selectively kill Giardia lamblia: qHTS;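 also: parasites exposed to compound for two days anaerobically before the ATP read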
# Conditions: Giardia lamblia trophozoite viability; at 7.66 µM; hits give low values
# How it was run: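 Killing of trophozoites was scored by loss of ATP luminescence after a 48 hrs anaerobic exposure to compounds at 37 deg C, using 100 cells per well.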
# % is scaled to controls: 0 for no effect and ±100 for the full control effect.
row,SMILES,activity change
1,COc1ccc(Br)cc1S(=O)(=O)n1ccnc1,inconclusive: -32.1% [inhibitor]
2,O=C(Nc1csc([N+](=O)[O-])c1)Nc1ccccc1Cl,inconclusive: -65.1% [inhibitor]
3,NC(=O)CC(NC(=O)Cc1cccc2ccccc12)c1ccc(NCCN2CCCCC2)c([N+](=O)[O-])c1 (stereo not given),inconclusive: -36.5% [inhibitor]
4,CN(C)c1ccc(N=Nc2ccc(S(N)(=O)=O)cc2)cc1,inconclusive: -35.6% [inhibitor]
5,Cc1nc2cc(NC(=O)Nc3nccs3)ccc2n1C,inconclusive: -41.4% [inhibitor]
6,Cc1nc2sc(-c3ccccc3)cc2c(=O)[nH]1,inconclusive: -33% [inhibitor]
7,Cc1cccc(N2C(=O)C3C4C=CC(CC4)C3C2=O)c1 (stereo not given),inconclusive: -32.3% [inhibitor]
8,O=C(Nc1ccc2c(c1)OCCO2)c1cc2ccccc2o1,inconclusive: -60.5% [inhibitor]
9,O=C(CNCc1ccccc1Cl)NCc1ccco1,inconclusive: -32.7% [inhibitor]
10,C=C1CCN(C(CC(C)C)C(=O)NCc2ccc(OC)cc2)S(=O)(=O)c2ccccc21 (stereo not given),inactive: -22.6%
11,O=C(O)c1ccc(N/N=C/c2cccc(F)c2)cc1,inconclusive: -41% [inhibitor]
12,CCOc1ccc2nc(NC(=O)C(NS(=O)(=O)c3cccc4nsnc34)C(C)C)sc2c1 (stereo not given),inconclusive: -31.5% [inhibitor]
13,COc1ccc(N2CCN(C(=O)c3cccc(NC(=O)c4ccco4)c3)CC2)cc1,inactive: -0.851%
14,CC1CS(=O)(=O)CCN1N=Cc1ccc([N+](=O)[O-])o1 (stereo not given),inconclusive: -75.6% [inhibitor]
15,CCn1c(SCc2ccc(C#N)cc2)nnc1-c1ccc(S(=O)(=O)N2CCCCC2)cc1,inactive: -0.198%
16,CCOc1ccc(N(CC(=O)Nc2cccc(Cl)c2)S(=O)(=O)c2c(C)noc2C)cc1,inconclusive: -36.1% [inhibitor]
17,O=C(CSc1nccc(=O)[nH]1)NCc1ccco1,inconclusive: -34.9% [inhibitor]
18,Cc1ccc(C)c(C(=O)COc2ccccc2[N+](=O)[O-])c1,inconclusive: -36.4% [inhibitor]
19,CCOC(=O)N1CCN(CC(O)COc2ccc(-c3ccccc3)cc2)CC1 (stereo not given),inactive: -2.06%
20,CCOC(=O)N1CCC(NC(=O)c2cc(S(=O)(=O)N3CCC4(CC3)OCCO4)ccc2F)CC1,inactive: -8.52%
21,COc1ccc(-c2nc(CS(=O)(=O)CC(=O)NCCc3ccc(C)cc3)c(C)o2)cc1,inconclusive: -31.6% [inhibitor]
22,COc1ccc(CNC(=O)C[C@H]2C[C@H](C(=O)N3CCCCC3)[C@@]3(CCc4ccccc4)c4[nH]c5ccc(Cl)cc5c4CCN3C2=O)cc1OC,inconclusive: -40.3% [inhibitor]
23,Cc1cccc(NC(=O)C2CC(=O)N(c3ccc4c(c3)OCCO4)C2)n1 (stereo not given),inconclusive: -31.5% [inhibitor]
24,CCC(Cc1ccccc1)NC(=O)CSc1ccsc1[N+](=O)[O-] (stereo not given),inconclusive: -37.9% [inhibitor]
25,C=C(C)Cn1c(CNC(C)=O)nc2ccccc21,inconclusive: -33.1% [inhibitor]

row,SMILES,activity change
1,COC(=O)c1[nH]c2ccc(Cl)cc2c1NC(=O)CN1CCC(C(N)=O)CC1,inconclusive: -33% [inhibitor]
2,Cc1ccccc1NC(=O)CSc1nc(N2CCCCC2)nc(N2CCCCC2)n1,inactive: -10.9%
3,Cc1ccccc1NC(=O)CN1C(=O)NC2(CCc3ccccc32)C1=O (stereo not given),inconclusive: -30.2% [inhibitor]
4,O=C(NC1(C(F)(F)F)NC(=O)N(Cc2ccco2)C1=O)c1cccnc1 (stereo not given),inconclusive: -31.1% [inhibitor]
5,Cn1nc(-c2ccccc2)c(CO)c1Oc1ccc(F)cc1,inactive: -1.42%
6,COc1ccc(-c2nc(C)sc2C)cc1,inactive: -25%
7,COc1cccc(NC(=O)C2CCCN(S(=O)(=O)c3cccc4cccnc34)C2)c1 (stereo not given),inconclusive: -34.1% [inhibitor]
8,CCCOC(=O)c1c(NC(=O)/C=C/c2cnn(C)c2C)sc(C(=O)OC)c1C,inactive: -3.8%
9,COc1ccc(C2c3ccc(O)cc3Oc3ncn(CCCO)c(=N)c32)cc1OC (stereo not given),inconclusive: -34.1% [inhibitor]
10,COc1ccc(/C=C/c2nc3ccccc3c(=O)o2)cc1,inconclusive: -49.9% [inhibitor]
11,CCOC(=O)CN1C(=O)/C(=C2\SC(=S)N(NC(=O)c3cccnc3)C2=O)c2ccccc21,inconclusive: -41.5% [inhibitor]
12,O=C(Nc1ccc(Cc2ccncc2)cc1)c1ccco1,inactive: -22.4%
13,CC1Cc2cc(S(=O)(=O)N3CCCCC3)ccc2N1C(=O)C1CCC1 (stereo not given),inactive: 7.59%
14,O=C(COC(=O)c1cncc(Br)c1)NCc1ccco1,inactive: 1.49%
15,O=[N+]([O-])c1c(NCCO)cc(N2CCCCCC2)c2nonc12,inactive: 1.18%
16,COc1ccc(CCNC(=O)CSc2ccsc2[N+](=O)[O-])cc1OC,active: -88.9%
17,COc1ccc(-c2nnc(NC(=O)C3=COCCO3)o2)cc1,inactive: -18%
18,Cc1ccc(S(=O)(=O)N2CC(C(=O)O)Oc3ccccc32)cc1 (stereo not given),inconclusive: -30.4% [inhibitor]
19,O=C(NC1CC1)c1ccc(C2SCC(=O)N2Cc2ccccc2)cc1 (stereo not given),inconclusive: -30.3% [inhibitor]
20,Cc1cccc(N2CCN(C(=O)CSc3ccsc3[N+](=O)[O-])CC2C)c1 (stereo not given),inconclusive: -39.4% [inhibitor]
21,S=C(Nc1cc(Cl)cc(Cl)c1)N1CCCC1,inconclusive: -31.9% [inhibitor]
22,O=C1C2CCCN2C(=O)N1CCCCN1CCN(c2ccccc2)CC1 (stereo not given),inconclusive: -44.7% [inhibitor]
23,CCOC(=O)C1CCN(C(=O)COC(=O)c2ccc([N+](=O)[O-])o2)CC1,inconclusive: -62.7% [inhibitor]
24,O=C(Nc1ccc(N2CCCCC2)cc1)c1ccccn1,active: -102%
25,COc1ccc(N(CCCN2C(=O)c3cccc4cccc(c34)C2=O)C(=O)c2cccc(OC)c2)cc1,inactive: 3.91%

# Source: PubChem BioAssay AID540267 (National Center for Advancing Translational Sciences (NCATS), 2011)
